Measured values: ChEMBL document CHEMBL2150867, “Comparative study of the affinity and metabolism of type I and type II binding quinoline carboxamide analogues by cytochrome P450 3A4” (J Med Chem, 2012)

Key:
Assay type in all cases: ADME
[1] = substrate: COc1ccc(NC(=O)c2cc(-c3ccncn3)nc3ccccc23)cc1; experiment: (§1) Activity at recombinant CYP3A4 NF-14 expressed in Escherichia coli after 5 mins by HPLC based LC/MS analysis
[2] = substrate: CN(C)c1ccc(NC(=O)c2cc(-c3cnccn3)nc3ccccc23)cc1; experiment: as §1
[3] = substrate: Cc1ccc(NC(=O)c2cc(-c3ccccc3)nc3ccccc23)cc1; experiment: as §1
[4] = substrate: CN(C)c1ccc(NC(=O)c2cc(-c3ccncn3)nc3ccccc23)cc1; experiment: as §1
[5] = substrate: O=C(Nc1ccccc1)c1cc(-c2cnccn2)nc2ccccc12; experiment: as §1
[6] = substrate: COc1ccc(NC(=O)c2cc(-c3cnccn3)nc3ccccc23)cc1; experiment: as §1
[7] = substrate: O=C(Nc1ccccc1)c1cc(-c2ccncn2)nc2ccccc12; experiment: as §1
[8] = substrate: Cc1ccc(NC(=O)c2cc(-c3ccncc3)nc3ccccc23)cc1; experiment: as §1
[9] = substrate: COc1ccc(NC(=O)c2cc(-c3ccccn3)nc3ccccc23)cc1; experiment: as §1
[10] = substrate: CN(C)c1ccc(NC(=O)c2cc(-c3ccccc3)nc3ccccc23)cc1; experiment: as §1
[11] = substrate: CN(C)c1ccc(NC(=O)c2cc(-c3ccccn3)nc3ccccc23)cc1; experiment: as §1
[12] = substrate: O=C(Nc1ccccc1)c1cc(-c2ccncc2)nc2ccccc12; experiment: as §1
[13] = substrate: O=C(Nc1ccccc1)c1cc(-c2ccccn2)nc2ccccc12; experiment: as §1
[14] = substrate: COc1ccc(NC(=O)c2cc(-c3ccncc3)nc3ccccc23)cc1; experiment: as §1
[15] = substrate: Cc1ccc(NC(=O)c2cc(-c3ccncn3)nc3ccccc23)cc1; experiment: as §1
[16] = substrate: O=C(Nc1ccccc1)c1cc(-c2ccccc2)nc2ccccc12; experiment: as §1
[17] = substrate: Cc1ccc(NC(=O)c2cc(-c3cnccn3)nc3ccccc23)cc1; experiment: as §1
[18] = substrate: Cc1ccc(NC(=O)c2cc(-c3ccccn3)nc3ccccc23)cc1; experiment: as §1
[19] = substrate: CN(C)c1ccc(NC(=O)c2cc(-c3ccncc3)nc3ccccc23)cc1; experiment: as §1
[20] = substrate: CN(C)c1ccc(NC(=O)c2cc(-c3ccncc3)nc3ccccc23)cc1; experiment: Metabolic stability of the compound assessed as CYP3A4 NF-14-mediated N-demethylation
[21] = substrate: COc1ccc(NC(=O)c2cc(-c3ccncc3)nc3ccccc23)cc1; experiment: Metabolic stability of the compound assessed as CYP3A4 NF-14-mediated O-demethylation
[22] = substrate: Cc1ccc(NC(=O)c2cc(-c3ccccc3)nc3ccccc23)cc1; experiment: (§2) Metabolic stability of the compound assessed as CYP3A4 NF-14-mediated benzylic hydroxylation
[23] = substrate: Cc1ccc(NC(=O)c2cc(-c3ccncc3)nc3ccccc23)cc1; experiment: as §2
[24] = substrate: Cc1ccc(NC(=O)c2cc(-c3ccncc3)nc3ccccc23)cc1; experiment: (§3) Metabolic stability of the compound assessed as CYP3A4 NF-14-mediated aromatic hydroxylation at ring-A
[25] = substrate: O=C(Nc1ccccc1)c1cc(-c2ccncc2)nc2ccccc12; experiment: as §3
[26] = substrate: O=C(Nc1ccccc1)c1cc(-c2ccccc2)nc2ccccc12; experiment: as §3
[27] = substrate: Cc1ccc(NC(=O)c2cc(-c3ccccc3)nc3ccccc23)cc1; experiment: (§4) Metabolic stability of the compound assessed as CYP3A4 NF-14-mediated aromatic hydroxylation at ring-B
[28] = substrate: O=C(Nc1ccccc1)c1cc(-c2ccccc2)nc2ccccc12; experiment: as §4
[29] = substrate: O=C(Nc1ccccc1)c1cc(-c2ccncc2)nc2ccccc12; experiment: Metabolic stability of the compound assessed as CYP3A4 NF-14-mediated p-hydroxylation at ring-A

B1: Cytochrome P450 3A4 (Homo sapiens) (protein)
chain: MALIPDLAMETWLLLAVSLVLLYLYGTHSHGLFKKLGIPGPTPLPFLGNILSYHKGFCMFDMECHKKYGKVWGFYDGQQPVLAITDPDMIKTVLVKECYSVFTNRRPFGPVGFMKSAISIAEDEEWKRLRSLLSPTFTSGKLKEMVPIIAQYGDVLVRNLRREAETGKPVTLKDVFGAYSMDVITSTSFGVNIDSLNNPQDPFVENTKKLLRFDFLDPFFLSITVFPFLIPILEVLNICVFPREVTNFLRKSVKRMKESRLEDTQKHRVDFLQLMIDSQNSKETESHKALSDLELVAQSIIFIFAGYETTSSVLSFIMYELATHPDVQQKLQEEIDAVLPNKAPPTYDTVLQMEYLDMVVNETLRLFPIAMRLERVCKKDVEINGMFIPKGVVVMIPSYALHRDPKYWTEPEKFLPERFSKKNKDNIDPYIYTPFGSGPRNCIGMRFALMNMKLALIRVLQNFSFKPCKETQIPLKLSLGGLLQPEKPVVLKVESRDGTVSGA
B1 gave a Km [1] of 2.6 µM, a kcat [1] of 0.145 s⁻¹ and a Km [2] of 11.1 µM. It also gave a kcat [2] of 0.513 s⁻¹, a Km [3] of 12 µM and a kcat [3] of 0.683 s⁻¹. It also gave a Km [4] of 2.8 µM, a kcat [4] of 0.16 s⁻¹ and a Km [5] of 3.6 µM. The kcat [5] was 0.148 s⁻¹, the Km [6] was 1.6 µM and the kcat [6] was 0.0893 s⁻¹. It also gave a Km [7] of 3.3 µM, a kcat [7] of 0.177 s⁻¹ and a Km [8] of 0.76 µM. The kcat [8] was 0.123 s⁻¹, the Km [9] was 2.6 µM and the kcat [9] was 0.095 s⁻¹. The Km [10] was 2.9 µM, the kcat [10] was 0.465 s⁻¹ and the Km [11] was 10.5 µM. It also gave a kcat [11] of 0.175 s⁻¹, a Km [12] of 1.13 µM and a kcat [12] of 0.228 s⁻¹. For the same protein, the Km [13] was 7.1 µM, the kcat [13] was 0.158 s⁻¹ and the Km [14] was 0.7 µM. The Km [15] was 3.2 µM, the kcat [15] was 0.213 s⁻¹ and the Km [16] was 6.5 µM. For the same protein, the kcat [16] was 0.138 s⁻¹, the Km [17] was 8 µM and the kcat [17] was 0.433 s⁻¹. The Km [18] was 13 µM, the kcat [18] was 0.623 s⁻¹ and the Km [19] was 1.03 µM. For the same protein, the kcat [19] was 0.218 s⁻¹, the Km [20] was 1.3 µM and the Km [21] was 0.8 µM. The kcat [21] was 0.03 s⁻¹, the Km [22] was 11.3 µM and the kcat [22] was 0.58 s⁻¹. It also gave a Km [23] of 0.77 µM, a kcat [23] of 0.1 s⁻¹ and a Km [24] of 0.72 µM. The kcat [24] was 0.0228 s⁻¹, the Km [25] was 1.24 µM and the kcat [25] was 0.0983 s⁻¹. It also gave a Km [26] of 5.3 µM, a kcat [26] of 0.0783 s⁻¹ and a Km [27] of 14.4 µM. For the same protein, the kcat [27] was 0.0967 s⁻¹, the Km [28] was 8.9 µM and the kcat [28] was 0.0617 s⁻¹. The Km [29] was 1.07 µM and the kcat [29] was 0.13 s⁻¹.
